Assay results: the supplement of paper PMC3334620
Whole data set: some 33,000 sequences, median “E-score (-0.5 to 0.5)” near -0.035, cut for the highest 2% near 0.35. The list shows a part of the results.

The sequences below were run against T1, Pdr3 (UniProt P33200) (assay: PBM E-score (8-mer binding enrichment) (E-score (-0.5 to 0.5)); higher = stronger / more preferred TF binding; most listed sequences are background and not binding sites). Details: protein concentration: 200 nM; construct: GST-full length.
T1 sequence: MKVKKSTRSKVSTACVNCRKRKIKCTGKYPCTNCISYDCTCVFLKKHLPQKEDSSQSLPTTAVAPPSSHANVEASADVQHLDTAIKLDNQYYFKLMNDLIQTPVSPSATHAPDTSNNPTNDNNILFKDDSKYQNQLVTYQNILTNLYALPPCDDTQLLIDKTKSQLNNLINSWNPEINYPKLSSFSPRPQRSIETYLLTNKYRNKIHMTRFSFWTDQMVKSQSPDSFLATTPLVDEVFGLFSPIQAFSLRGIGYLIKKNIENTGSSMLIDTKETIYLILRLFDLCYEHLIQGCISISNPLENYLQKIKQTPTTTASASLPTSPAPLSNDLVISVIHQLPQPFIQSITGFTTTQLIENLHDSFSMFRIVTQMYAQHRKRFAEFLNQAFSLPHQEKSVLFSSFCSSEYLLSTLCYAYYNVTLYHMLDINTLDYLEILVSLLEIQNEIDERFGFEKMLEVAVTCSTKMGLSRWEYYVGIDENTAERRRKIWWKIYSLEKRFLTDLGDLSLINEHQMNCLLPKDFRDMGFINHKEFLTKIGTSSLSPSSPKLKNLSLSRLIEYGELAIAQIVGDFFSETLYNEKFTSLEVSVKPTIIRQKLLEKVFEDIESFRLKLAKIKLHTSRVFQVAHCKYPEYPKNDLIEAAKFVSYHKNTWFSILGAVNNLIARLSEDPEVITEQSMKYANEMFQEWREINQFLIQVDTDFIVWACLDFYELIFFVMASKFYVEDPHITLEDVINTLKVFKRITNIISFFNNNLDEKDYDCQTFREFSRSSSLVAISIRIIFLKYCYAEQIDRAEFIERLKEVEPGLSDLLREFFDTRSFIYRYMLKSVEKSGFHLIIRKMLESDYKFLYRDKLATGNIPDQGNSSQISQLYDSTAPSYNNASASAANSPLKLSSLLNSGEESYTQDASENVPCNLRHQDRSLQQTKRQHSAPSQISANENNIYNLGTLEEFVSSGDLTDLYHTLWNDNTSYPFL
Summary of the method: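 GST-tagged yeast TFs (full-length or DNA-binding domain) were made by PURExpress in vitro transcription/translation and applied at about 100-200 nM to universal all-10-mer Agilent arrays. The arrays were made double-stranded by primer extension, on fresh or once-stripped slides. Bound protein was detected with fluorescent anti-GST, and scans were normalised with masliner. Each ungapped eight-base word, pooled with its reverse complement, received an E-score (modified Wilcoxon-Mann-Whitney statistic) from the Universal PBM Analysis Suite.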

Sequence	PBM E-score
ACGAGCTA	-0.123
GAAATCCC	0.0874
GGTCTGGA	-0.0719
CTCGTTAA	-0.177
AATTCGGA	0.365
GGCGTCCA	-0.00919
CAACGTTG	0.0678
ATCTTTGC	0.0117
ACGTTTAA	-0.159
GCAAACAA	0.0332
AGTCAAAC	-0.166
ACGGGTAT	0.0895
CAACATCG	0.0554
GGCAACTA	0.0892
ACATAGGG	-0.0992
GCTTTACA	0.0212
CGGATCAG	0.334
GATAAACA	0.0969
AGAATACT	-0.121
AACTAGTA	-0.225
AAGTGTCC	0.113
CAACCAGA	0.0315
AGCCTTGG	-0.306
CCCAGAAG	-0.163
CGAGGCTA	-0.0662

Sequence	PBM E-score
CAAGTAAC	-0.0792
CAACTAAA	-0.062
AACGAGTT	-0.219
CCCATTGA	0.0107
GCCATCAC	-0.166
GCACTCTA	-0.0708
ATGTATGA	0.00853
ACGCGAAG	0.0438
AAACACGG	0.117
AGAGGGGG	-0.313
ACATGGCA	-0.0115
ACATTGTG	-0.152
CAACCCGA	0.212
AAACTACC	-0.00608
ATTAATTA	0.00925
AGGAGTGA	-0.0515
ACGTGGCC	-0.246
CGTTTCGA	-0.259
AAGATGCT	-0.108
GCGACAGC	-0.0709
AAGAATGA	-0.136
CCCGTCCG	0.241
CCAATCCA	-0.0182
ACTCCAGC	-0.113
ACCACTAG	-0.133

Sequence	PBM E-score
ACCGTCAT	-0.0103
CGGCCCAG	0.0316
CCTCGACG	0.0752
CAGGGGTA	-0.117
CGCTAGCG	-0.13
AACCTTGT	-0.222
TCTTCCCA	-0.0869
CAAGCACG	-0.1
AACCCCAT	0.0711
GACTCCCC	-0.0585
GCGGCGTA	0.156
AACCCCAC	0.0512
GCCTCAGA	-0.0687
CAACCCCG	0.209
CGAACTCC	0.132
AACCCAGC	-0.118
GCCTATAA	-0.213
GCGGACAC	0.21
TACCGATA	0.0617
AGGGTTGG	-0.0309
CAATTTTA	0.0153
AATTGTCT	0.0126
ATGCAACA	-0.286
CACAGTCG	-0.211
AACCAGGG	-0.055

Sequence	PBM E-score
TATATCCA	0.0177
GTAGGAAA	-0.178
GCTCCGTA	0.32
ATATATAC	0.19
AGCTCCCG	0.0843
CATTCAAA	0.19
AAAGCTGG	-0.0169
GTGTCAAC	-0.0447
AGAATTTG	-0.158
AAATCCGC	0.196
CGGCACAA	0.121
ACAATTCG	0.0843
AGATGTTC	-0.143
GACCCACA	0.0886
ATACGAAA	0.182
CCGCCCGA	0.269
AGACCCTA	-0.168
CAAGCCAC	-0.313
AAGTCTTC	-0.257
AAATACGC	0.156
ATTCAGCG	-0.011
CGCTGCAC	0.121
GCCGTAAC	-0.0415
CTGTTAAA	-0.227
AAATCGAG	0.104

Sequence	PBM E-score
ACCAGGGG	-0.0427
ACTAATAC	0.104
CGGCCTTC	0.268
CCATGTAC	-0.237
GGTTTGTA	-0.0635
GTGCGTAA	-0.123
ACAAGAGC	-0.0111
CAGACAGC	-0.078
ATGTATTG	0.116
AATTCCTG	-0.021
CTTCGCAC	-0.151
TGGAACAA	-0.0164
AATGCGCA	0.232
AGTTACGG	0.0704
GTCTCATA	-0.1
CATTTTTC	-0.00253
TCACCACA	-0.0208
ATTACAAA	-0.0697
CAGGTATC	-0.0844
AACAATAC	0.0524
CAGTTACC	-0.0312
GATAAATC	0.196
ACGGGACT	0.183
ACCTAAGT	-0.0261
AACTAACC	0.156

Sequence	PBM E-score
ATTGTCAA	-0.0556
CGAGAGCC	-0.0597
GAAATGGC	-0.0959
AAAAGCGC	-0.0799
CGTAGGGC	-0.157
AATTGACA	-0.141
CAGCGGTA	0.0263
CATAGAAG	-0.0582
ACGCCGCA	0.181
TCCCTCCA	-0.178
AGCCTAGA	-0.336
CAGCCGGA	0.398
AATACTGC	0.0423
AGCTCGAA	0.111
CAATGGCG	0.166
TCGAGGCA	-0.123
GTGCCGCA	0.0517
TCATTCCA	0.14
TCGAATCA	-0.0653
GCCCACAA	-0.177
ACGGCACC	-0.0873
ACTCCTTA	-0.185
CATTCCTA	-0.14
AAGTATAA	0.0419
GTTTGCAA	-0.0396

Sequence	PBM E-score
AGGTTGTC	-0.155
CGACGCTC	0.0499
ATATTTTC	0.233
ACGCTGTC	-0.0291
AAGGCCTC	-0.161
ACTCAAGA	-0.2
CTGCACAC	-0.165
CTGGGCCC	-0.117
CTACGAGC	-0.185
CCTAGTCG	-0.23
AGATAGCG	-0.177
AACGACCG	-0.146
AGTAAATA	0.0827
ATCTCTGC	-0.0587
ATGGCTTG	-0.196
ATTTACTG	0.0661
AACCTGTG	-0.256
AATTGGGA	0.057
TAACGCTA	-0.172
AACAATGT	-0.135
CGATTCGA	0.143
CCGCGCAA	0.192
